Measured values reported in a collection of fitness landscapes (doi:10.1016/j.celrep.2020.107928).
Whole data set: some 81,000 sequences, median “one-hybrid fitness for binding NBS DNA” near -0.1, cut for the highest 2% near 0.36. This is one part of the list.

B1: Caulobacter ParB omega fusion; a variant is named by its letters at X, in order, B8GW30 (parent)
chain: MESVVVGEPGMSEGRRGLGRGLSALLGEVDAAPAQAPGEQLGGSREAPIEILQRNPDQPRRTFREEDLEDLSNSIREKGVLQPILVRPSPDTAGEYQIVAGERAWRAAQRAGLKTVPIMVRELDDLAVLEIGIIENVQRADLNVLEEALSYKVLMEKFERTQENIAQTIGKSXSHVANXMRLLXLPDEVQSYLVSGELTAXHARAIAAAADPVALAKQIIEGGLSVRETEALARKAPNLSAGKSKGGRPPRVKDTDTQALESDLSSVLGLDVSIDHRGSTGTLTITYATLEQLDDLCNRLTRGI

Variants of: B1
Experiment: one-hybrid fitness for binding NBS DNA (the Noc-binding site; scaled: cognate 1, non-cognate 0); higher = stronger binding
Settings: with NBS DNA site
How it was run: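 Pre- and post-selection plasmids were Illumina-sequenced, three replicate libraries were pooled, and any variant with under 10 reads was removed. The libraries were Caulobacter ParB with four specificity codons randomised, selected in E. coli USO through a HIS3 reporter whose site is 19 bp from the promoter. Cells grew 48 hours at 37°C on M9 without histidine, with 0.1 mM IPTG and 5 mM 3-AT. Fitness is the log change in variant-to-wild-type read ratio, rescaled against cognate and non-cognate.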

Row | Variant | one-hybrid fitness for binding NBS DNA
1 | TYEG | ≤ 0.2
2 | MTTE | ≤ 0.2
3 | GSCS | ≤ 0.2
4 | AYEM | ≤ 0.2
5 | SEHR | ≤ 0.2
6 | NTPA | ≤ 0.2
7 | RSDR | ≤ 0.2
8 | TEWG | ≤ 0.2
9 | KQGL | ≤ 0.2
10 | RYPF | ≤ 0.2
11 | SSIS | ≤ 0.2
12 | STCH | ≤ 0.2
13 | PRRE | ≤ 0.2
14 | PALM | ≤ 0.2
15 | GNQD | ≤ 0.2
16 | DMDR | ≤ 0.2
17 | IYDC | ≤ 0.2
18 | RHRQ | ≤ 0.2
19 | IYWR | ≤ 0.2
20 | RYYI | ≤ 0.2
21 | MLRS | ≤ 0.2
22 | CWCR | ≤ 0.2
23 | NGRK | ≤ 0.2
24 | AIPN | ≤ 0.2

Row | Variant | one-hybrid fitness for binding NBS DNA
25 | YSMA | ≤ 0.2
26 | GCSR | ≤ 0.2
27 | DVTG | ≤ 0.2
28 | YGTY | ≤ 0.2
29 | QTTM | 0.245
30 | CDRN | ≤ 0.2
31 | LSRA | ≤ 0.2
32 | ENSA | ≤ 0.2
33 | SHCE | ≤ 0.2
34 | NMRM | ≤ 0.2
35 | SPRK | ≤ 0.2
36 | HPPY | ≤ 0.2
37 | IPSH | ≤ 0.2
38 | DGAG | ≤ 0.2
39 | RELY | ≤ 0.2
40 | RHLW | ≤ 0.2
41 | DNTC | ≤ 0.2
42 | IACR | ≤ 0.2
43 | YSDG | ≤ 0.2
44 | TMHE | ≤ 0.2
45 | STVQ | ≤ 0.2
46 | QDRS | ≤ 0.2
47 | GQVC | ≤ 0.2
48 | CSNC | ≤ 0.2

Row | Variant | one-hybrid fitness for binding NBS DNA
49 | PWVP | ≤ 0.2
50 | QKHW | ≤ 0.2
51 | AESR | ≤ 0.2
52 | YHYM | ≤ 0.2
53 | RTSE | ≤ 0.2
54 | PSSV | ≤ 0.2
55 | RLGQ | ≤ 0.2
56 | MSKE | ≤ 0.2
57 | PQEN | ≤ 0.2
58 | DAHC | ≤ 0.2
59 | TRAQ | ≤ 0.2
60 | VCHC | ≤ 0.2
61 | INSL | ≤ 0.2
62 | LDER | ≤ 0.2
63 | VDVI | ≤ 0.2
64 | SRSI | ≤ 0.2
65 | YTES | ≤ 0.2
66 | RPLI | ≤ 0.2
67 | LSDT | ≤ 0.2
68 | NRGK | ≤ 0.2
69 | CALC | ≤ 0.2
70 | QKAK | ≤ 0.2
71 | VGSR | ≤ 0.2
72 | TDGS | ≤ 0.2

Row | Variant | one-hybrid fitness for binding NBS DNA
73 | VLRF | ≤ 0.2
74 | QMYV | ≤ 0.2
75 | WGDL | ≤ 0.2
76 | VLLC | ≤ 0.2
77 | DMRT | ≤ 0.2
78 | KKAD | ≤ 0.2
79 | QWKM | ≤ 0.2
80 | VKAL | ≤ 0.2
81 | PQLM | ≤ 0.2
82 | TKPA | ≤ 0.2
83 | ESVS | ≤ 0.2
84 | FTGS | ≤ 0.2
85 | LVCW | ≤ 0.2
86 | DGYG | ≤ 0.2
87 | DEDG | ≤ 0.2
88 | GNIV | ≤ 0.2
89 | AMFC | ≤ 0.2
90 | VKHG | ≤ 0.2
91 | LVCT | ≤ 0.2
92 | PDLA | ≤ 0.2
93 | ANPD | ≤ 0.2
94 | RDVI | ≤ 0.2
95 | HMSI | ≤ 0.2
96 | LYHF | ≤ 0.2

Row | Variant | one-hybrid fitness for binding NBS DNA
97 | QFYG | ≤ 0.2
98 | SLTT | ≤ 0.2
99 | HSMW | ≤ 0.2
100 | NRGT | ≤ 0.2
101 | PDQS | ≤ 0.2
102 | PNNA | ≤ 0.2
103 | FYPT | ≤ 0.2
104 | SIVA | ≤ 0.2
105 | DLHT | ≤ 0.2
106 | STSK | ≤ 0.2
107 | ELNC | ≤ 0.2
108 | TSRK | ≤ 0.2
109 | MTVF | ≤ 0.2
110 | DPTK | ≤ 0.2
111 | WTFC | ≤ 0.2
112 | RGMI | ≤ 0.2
113 | NKVT | ≤ 0.2
114 | QQSW | ≤ 0.2
115 | LMTN | ≤ 0.2
116 | YMMT | ≤ 0.2
117 | AEDF | ≤ 0.2
118 | FDQT | ≤ 0.2
119 | QPHA | ≤ 0.2
120 | RLRS | 0.541

Row | Variant | one-hybrid fitness for binding NBS DNA
121 | YWYR | ≤ 0.2
122 | QSYW | ≤ 0.2
123 | NSCM | ≤ 0.2
124 | WDPK | ≤ 0.2
125 | WCDG | ≤ 0.2
126 | LYWR | ≤ 0.2
127 | WHSG | ≤ 0.2
128 | SFDV | ≤ 0.2
129 | LLPM | ≤ 0.2
130 | MLHS | ≤ 0.2
131 | QCQG | ≤ 0.2
132 | LRSI | ≤ 0.2
133 | PPVW | ≤ 0.2
134 | VMCV | ≤ 0.2
135 | QHKY | 0.529
136 | ELPD | ≤ 0.2
137 | KNTT | ≤ 0.2
138 | QMWK | ≤ 0.2
139 | DSHL | ≤ 0.2
140 | LNIT | ≤ 0.2
141 | TQNT | ≤ 0.2
142 | RPDD | ≤ 0.2
143 | VFIC | ≤ 0.2
144 | RMDG | ≤ 0.2

Row | Variant | one-hybrid fitness for binding NBS DNA
145 | AMIR | ≤ 0.2
146 | VNFE | ≤ 0.2
147 | AWTV | ≤ 0.2
148 | KQTT | ≤ 0.2
149 | HPFV | ≤ 0.2
150 | VVLS | ≤ 0.2
151 | QNTN | ≤ 0.2
152 | WCVT | ≤ 0.2
153 | WDDY | ≤ 0.2
154 | WKRL | ≤ 0.2
155 | ALGM | ≤ 0.2
156 | QVGL | ≤ 0.2
157 | DFES | ≤ 0.2
158 | QKEY | ≤ 0.2
159 | WNNR | ≤ 0.2
160 | KKNN | ≤ 0.2
161 | PYSL | ≤ 0.2
162 | LWYT | ≤ 0.2
163 | VMVG | ≤ 0.2
164 | NYFL | ≤ 0.2
165 | DLIT | ≤ 0.2
166 | DVQS | ≤ 0.2
167 | TAWG | ≤ 0.2
168 | PGPE | ≤ 0.2

Row | Variant | one-hybrid fitness for binding NBS DNA
169 | PPPC | ≤ 0.2
170 | TPLM | ≤ 0.2
171 | SDRR | ≤ 0.2
172 | HRHL | ≤ 0.2
173 | DQAT | ≤ 0.2
174 | TGKV | ≤ 0.2
175 | TYGN | ≤ 0.2
176 | CITC | ≤ 0.2
177 | RMGK | ≤ 0.2
178 | CEPR | ≤ 0.2
179 | SCMM | ≤ 0.2
180 | RAMY | ≤ 0.2
181 | EINS | ≤ 0.2
182 | WGKV | ≤ 0.2
183 | KQES | ≤ 0.2
184 | MADI | ≤ 0.2
185 | RHQL | ≤ 0.2
186 | YRTE | ≤ 0.2
187 | QCIE | ≤ 0.2
188 | QIYI | ≤ 0.2
189 | TVHP | ≤ 0.2
190 | LQVD | ≤ 0.2
191 | GDRW | ≤ 0.2
192 | NATG | ≤ 0.2

Row | Variant | one-hybrid fitness for binding NBS DNA
193 | WPVQ | ≤ 0.2
194 | LLRI | ≤ 0.2
195 | TCPA | ≤ 0.2
196 | CIPC | ≤ 0.2
197 | ILSC | ≤ 0.2
198 | GYTL | ≤ 0.2
199 | GHHC | ≤ 0.2
200 | RIYE | ≤ 0.2
201 | RGTP | ≤ 0.2
202 | GMVE | ≤ 0.2
203 | ARAL | ≤ 0.2
204 | MESM | ≤ 0.2
205 | WQKS | ≤ 0.2
206 | IHLG | ≤ 0.2
207 | ETRY | ≤ 0.2
208 | YVMS | ≤ 0.2
209 | NCNA | ≤ 0.2
210 | RIKG | ≤ 0.2
211 | QVYP | ≤ 0.2
212 | DLPI | ≤ 0.2
213 | VGQT | ≤ 0.2
214 | HHNS | ≤ 0.2
215 | VTRY | ≤ 0.2
216 | HPPM | ≤ 0.2

Row | Variant | one-hybrid fitness for binding NBS DNA
217 | SPNR | ≤ 0.2
218 | RENA | ≤ 0.2
219 | TEGT | ≤ 0.2
220 | QACI | ≤ 0.2
221 | SNPT | ≤ 0.2
222 | FIGG | ≤ 0.2
223 | SSIV | ≤ 0.2
224 | AEWR | ≤ 0.2
225 | SNMW | ≤ 0.2
226 | YKYC | ≤ 0.2
227 | PVQE | ≤ 0.2
228 | RKSW | ≤ 0.2
229 | PLIP | ≤ 0.2
230 | RWCI | ≤ 0.2
231 | CCRS | ≤ 0.2
232 | RQMK | ≤ 0.2
233 | MSFS | ≤ 0.2
234 | ECVG | ≤ 0.2
235 | GEHG | ≤ 0.2
236 | LEHE | ≤ 0.2
237 | RPTP | ≤ 0.2
238 | YKMG | ≤ 0.2
239 | PIRS | ≤ 0.2
240 | HCSR | ≤ 0.2

Row | Variant | one-hybrid fitness for binding NBS DNA
241 | TLRM | ≤ 0.2
242 | RLEN | ≤ 0.2
243 | SPLV | ≤ 0.2
244 | PATV | ≤ 0.2
245 | MGKT | ≤ 0.2
246 | DSSC | ≤ 0.2
247 | WLYT | ≤ 0.2
248 | EWEG | ≤ 0.2
249 | REAC | ≤ 0.2
250 | PQQL | ≤ 0.2
251 | PWNV | ≤ 0.2
252 | ECRT | ≤ 0.2
253 | PIHC | ≤ 0.2
254 | EHPG | ≤ 0.2
255 | FAQS | ≤ 0.2
256 | QVCH | ≤ 0.2
257 | INHC | ≤ 0.2
258 | SMRL | ≤ 0.2
259 | GVRT | ≤ 0.2
260 | MSNI | ≤ 0.2
261 | HSES | ≤ 0.2
262 | DPHM | ≤ 0.2
263 | HALC | ≤ 0.2
264 | YTNS | ≤ 0.2

Row | Variant | one-hybrid fitness for binding NBS DNA
265 | PTMS | ≤ 0.2
266 | RKDD | ≤ 0.2
267 | KHER | ≤ 0.2
268 | LNDF | ≤ 0.2
269 | MFAS | ≤ 0.2
270 | RYRS | 0.572
271 | PAFS | ≤ 0.2
272 | KMSC | ≤ 0.2
273 | STTF | ≤ 0.2
274 | LTEG | ≤ 0.2
275 | LWGY | ≤ 0.2
276 | ADGT | ≤ 0.2
277 | QLCP | ≤ 0.2
278 | PTAK | ≤ 0.2
279 | WSWF | ≤ 0.2
280 | THES | ≤ 0.2
281 | SEKV | ≤ 0.2
282 | YNAR | ≤ 0.2
283 | NSTL | ≤ 0.2
284 | QQTL | ≤ 0.2
285 | CHMY | ≤ 0.2
286 | SNEL | ≤ 0.2
287 | YQFG | ≤ 0.2
288 | HRTH | ≤ 0.2

Row | Variant | one-hybrid fitness for binding NBS DNA
289 | RCNP | ≤ 0.2
290 | ILHN | ≤ 0.2
291 | LADW | ≤ 0.2
292 | DKTT | ≤ 0.2
293 | CHVW | ≤ 0.2
294 | AIVY | ≤ 0.2
295 | TGLP | ≤ 0.2
296 | MYMS | ≤ 0.2
297 | IKAT | ≤ 0.2
298 | YIRF | ≤ 0.2
299 | KYAS | ≤ 0.2
300 | QMCC | ≤ 0.2
301 | ITSQ | ≤ 0.2
302 | NINW | ≤ 0.2
303 | GSWA | ≤ 0.2
304 | YHHM | ≤ 0.2
305 | PIRE | ≤ 0.2
306 | GDTY | ≤ 0.2
